B1: Caulobacter ParB omega fusion; a variant is named by its letters at X, in order, B8GW30 (parent)
chain: MESVVVGEPGMSEGRRGLGRGLSALLGEVDAAPAQAPGEQLGGSREAPIEILQRNPDQPRRTFREEDLEDLSNSIREKGVLQPILVRPSPDTAGEYQIVAGERAWRAAQRAGLKTVPIMVRELDDLAVLEIGIIENVQRADLNVLEEALSYKVLMEKFERTQENIAQTIGKSXSHVANXMRLLXLPDEVQSYLVSGELTAXHARAIAAAADPVALAKQIIEGGLSVRETEALARKAPNLSAGKSKGGRPPRVKDTDTQALESDLSSVLGLDVSIDHRGSTGTLTITYATLEQLDDLCNRLTRGI

The full ranking holds about 81,000 sequences; the median of “one-hybrid fitness for binding parS DNA” is about -0.17, and the highest 2% start at about 0.51. Some of the results follow.

These results are taken from a collection of fitness landscapes (doi:10.1016/j.celrep.2020.107928).

The assay covers variants of B1. Briefly: one-hybrid fitness for binding parS DNA (scaled: cognate 1, non-cognate 0); higher = stronger binding. The settings on record: with parS DNA site. An outline of the steps:
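Fitness here means the log change in variant-to-wild-type read ratio between plasmids sequenced before and after selection. That scale was set so cognate equals 1 and non-cognate equals 0. The selection was a bacterial one-hybrid screen of Caulobacter ParB libraries, four specificity codons randomised, in E. coli USO carrying a HIS3 reporter with the site 19 bp from the promoter, grown 48 hours at 37°C on M9-minus-histidine with 0.1 mM IPTG and 5 mM 3-AT.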
As to HMRT, the “one-hybrid fitness for binding parS DNA” value is ≤ 0.2.

For DRFH, the “one-hybrid fitness for binding parS DNA” value was ≤ 0.2. As to FNIG, the “one-hybrid fitness for binding parS DNA” value was ≤ 0.2.

Turning to AREN, the “one-hybrid fitness for binding parS DNA” value is ≤ 0.2.

CNTR: the “one-hybrid fitness for binding parS DNA” value was ≤ 0.2. Then HTIA, with ≤ 0.2; and EAVV, with ≤ 0.2. In the case of RMLM, the “one-hybrid fitness for binding parS DNA” value was determined as 0.363. As to TEAK, the “one-hybrid fitness for binding parS DNA” value was ≤ 0.2. On to EDFT, for which the “one-hybrid fitness for binding parS DNA” value was ≤ 0.2. For the variant FYMV, the “one-hybrid fitness for binding parS DNA” value was ≤ 0.2. For the variant YTLN, the “one-hybrid fitness for binding parS DNA” value was ≤ 0.2. As for PTGK, the “one-hybrid fitness for binding parS DNA” value is ≤ 0.2. For the variant TAHG, the “one-hybrid fitness for binding parS DNA” value is ≤ 0.2. LTRL: the “one-hybrid fitness for binding parS DNA” value is ≤ 0.2. For the variant THHS, the “one-hybrid fitness for binding parS DNA” value was ≤ 0.2. In the case of PGKE, the “one-hybrid fitness for binding parS DNA” value is ≤ 0.2.

RLYT: the “one-hybrid fitness for binding parS DNA” value came to 0.943. Turning to DVNG, the “one-hybrid fitness for binding parS DNA” value is ≤ 0.2. With LFRR, the “one-hybrid fitness for binding parS DNA” value is ≤ 0.2.

Consider HSLE, for which the “one-hybrid fitness for binding parS DNA” value is ≤ 0.2. For the variant PVNM, the “one-hybrid fitness for binding parS DNA” value is ≤ 0.2. Consider ITKI, for which the “one-hybrid fitness for binding parS DNA” value was ≤ 0.2. Then AVQR, with ≤ 0.2. Next, QYHS: ≤ 0.2; ERST: ≤ 0.2. Next, HGMR: ≤ 0.2; PCWK: ≤ 0.2. For the variant LLPK, the “one-hybrid fitness for binding parS DNA” value is ≤ 0.2. Regarding RTDW, the “one-hybrid fitness for binding parS DNA” value was ≤ 0.2. For MPDG, the “one-hybrid fitness for binding parS DNA” value is ≤ 0.2. For FVWT, the “one-hybrid fitness for binding parS DNA” value was ≤ 0.2. For the variant SHMM, the “one-hybrid fitness for binding parS DNA” value is ≤ 0.2. For RVRE, the “one-hybrid fitness for binding parS DNA” value was ≤ 0.2. On to RWNS, for which the “one-hybrid fitness for binding parS DNA” value was 0.926. For the variant LQKS, the “one-hybrid fitness for binding parS DNA” value is ≤ 0.2. Next, PESE: ≤ 0.2; VPFR: ≤ 0.2; AAMN: ≤ 0.2. Then VMSY, with ≤ 0.2. As to VGRW, the “one-hybrid fitness for binding parS DNA” value is ≤ 0.2. Next, QLLW: ≤ 0.2; MWSR: ≤ 0.2; LDNS: ≤ 0.2.

For RFDY, the “one-hybrid fitness for binding parS DNA” value turned out to be 0.443.

KGDD: the “one-hybrid fitness for binding parS DNA” value was ≤ 0.2.

On to PEDS, for which the “one-hybrid fitness for binding parS DNA” value was ≤ 0.2. As to RCMK, the “one-hybrid fitness for binding parS DNA” value was ≤ 0.2. As to QPEN, the “one-hybrid fitness for binding parS DNA” value was ≤ 0.2. With IEQT, the “one-hybrid fitness for binding parS DNA” value was ≤ 0.2.

As to RHNE, the “one-hybrid fitness for binding parS DNA” value was ≤ 0.2. Next, LGIL: ≤ 0.2; RQFG: 0.917.

In the case of QFML, the “one-hybrid fitness for binding parS DNA” value is ≤ 0.2. Regarding STFR, the “one-hybrid fitness for binding parS DNA” value was ≤ 0.2. For the variant GNSL, the “one-hybrid fitness for binding parS DNA” value was ≤ 0.2. For the variant HKDW, the “one-hybrid fitness for binding parS DNA” value was ≤ 0.2.

For the variant PPTN, the “one-hybrid fitness for binding parS DNA” value was ≤ 0.2. In the case of YHPT, the “one-hybrid fitness for binding parS DNA” value was ≤ 0.2. EQRG: the “one-hybrid fitness for binding parS DNA” value was ≤ 0.2. As for YTSL, the “one-hybrid fitness for binding parS DNA” value was ≤ 0.2. CYCT: the “one-hybrid fitness for binding parS DNA” value is ≤ 0.2. Consider CTGM, for which the “one-hybrid fitness for binding parS DNA” value is ≤ 0.2. ASKL: the “one-hybrid fitness for binding parS DNA” value was ≤ 0.2. Next, WWDR: ≤ 0.2; MFTM: ≤ 0.2; HSER: ≤ 0.2. FDTD: the “one-hybrid fitness for binding parS DNA” value is ≤ 0.2. HFAC: the “one-hybrid fitness for binding parS DNA” value was ≤ 0.2. Regarding YPQL, the “one-hybrid fitness for binding parS DNA” value is ≤ 0.2.

With SSCQ, the “one-hybrid fitness for binding parS DNA” value was ≤ 0.2. Next, VYQL: ≤ 0.2; QKHD: ≤ 0.2; MNRW: ≤ 0.2. With NTNF, the “one-hybrid fitness for binding parS DNA” value was ≤ 0.2.

In the case of WKSS, the “one-hybrid fitness for binding parS DNA” value is ≤ 0.2. For the variant NVEV, the “one-hybrid fitness for binding parS DNA” value was ≤ 0.2. Consider VMGT, for which the “one-hybrid fitness for binding parS DNA” value was ≤ 0.2.

On to QLVM, for which the “one-hybrid fitness for binding parS DNA” value was ≤ 0.2. As to SSVY, the “one-hybrid fitness for binding parS DNA” value was ≤ 0.2. VQTL: the “one-hybrid fitness for binding parS DNA” value is ≤ 0.2.

Turning to VDIV, the “one-hybrid fitness for binding parS DNA” value is ≤ 0.2. For QYDK, the “one-hybrid fitness for binding parS DNA” value is ≤ 0.2. Next, RYWK: ≤ 0.2; VRSD: ≤ 0.2.

Consider RGVP, for which the “one-hybrid fitness for binding parS DNA” value was ≤ 0.2. In the case of ELNT, the “one-hybrid fitness for binding parS DNA” value is ≤ 0.2. CCCT: the “one-hybrid fitness for binding parS DNA” value is ≤ 0.2. Next, QTSC: ≤ 0.2; RQMP: ≤ 0.2. In the case of HGWS, the “one-hybrid fitness for binding parS DNA” value was ≤ 0.2. Consider GATL, for which the “one-hybrid fitness for binding parS DNA” value was ≤ 0.2. Then TRKQ, with ≤ 0.2.

Take PRGQ: the “one-hybrid fitness for binding parS DNA” value is ≤ 0.2. Take TSIY: the “one-hybrid fitness for binding parS DNA” value is ≤ 0.2.

Take IATN: the “one-hybrid fitness for binding parS DNA” value was ≤ 0.2. Then YPTH, with ≤ 0.2; and RFIW, with ≤ 0.2.

Regarding TWQE, the “one-hybrid fitness for binding parS DNA” value is ≤ 0.2. For YPTM, the “one-hybrid fitness for binding parS DNA” value is ≤ 0.2.

RTQR: the “one-hybrid fitness for binding parS DNA” value is ≤ 0.2. As to PYFG, the “one-hybrid fitness for binding parS DNA” value is ≤ 0.2.

NGCR: the “one-hybrid fitness for binding parS DNA” value is ≤ 0.2. Regarding KILR, the “one-hybrid fitness for binding parS DNA” value is ≤ 0.2.

On to RRAH, for which the “one-hybrid fitness for binding parS DNA” value was ≤ 0.2. With GMKY, the “one-hybrid fitness for binding parS DNA” value is ≤ 0.2. As for PYNV, the “one-hybrid fitness for binding parS DNA” value is ≤ 0.2. Next, WDVI: ≤ 0.2; WYVG: ≤ 0.2. Regarding QTWL, the “one-hybrid fitness for binding parS DNA” value is ≤ 0.2. As for ASPW, the “one-hybrid fitness for binding parS DNA” value is ≤ 0.2.

In the case of PMAC, the “one-hybrid fitness for binding parS DNA” value was ≤ 0.2. Regarding ACTS, the “one-hybrid fitness for binding parS DNA” value was ≤ 0.2. For the variant PINS, the “one-hybrid fitness for binding parS DNA” value is ≤ 0.2. Then QEES, with ≤ 0.2. RNQF: the “one-hybrid fitness for binding parS DNA” value was ≤ 0.2. For the variant YGGC, the “one-hybrid fitness for binding parS DNA” value was ≤ 0.2. As to GGII, the “one-hybrid fitness for binding parS DNA” value was ≤ 0.2. Next, QVPV: ≤ 0.2. For the variant AFIL, the “one-hybrid fitness for binding parS DNA” value is ≤ 0.2.

For the variant LCKL, the “one-hybrid fitness for binding parS DNA” value is ≤ 0.2. HQLI: the “one-hybrid fitness for binding parS DNA” value was ≤ 0.2. For the variant GCAV, the “one-hybrid fitness for binding parS DNA” value is ≤ 0.2. Take QSVY: the “one-hybrid fitness for binding parS DNA” value is ≤ 0.2. MEKG: the “one-hybrid fitness for binding parS DNA” value is ≤ 0.2. Then RRNV, with ≤ 0.2. On to GIEG, for which the “one-hybrid fitness for binding parS DNA” value is ≤ 0.2. Next, HKTS: ≤ 0.2; DMHA: ≤ 0.2; YSSM: ≤ 0.2. Take HCCR: the “one-hybrid fitness for binding parS DNA” value was ≤ 0.2. Next, HEIR: ≤ 0.2. Consider RRDE, for which the “one-hybrid fitness for binding parS DNA” value was ≤ 0.2.

Consider GAYD, for which the “one-hybrid fitness for binding parS DNA” value was ≤ 0.2. Consider VSNE, for which the “one-hybrid fitness for binding parS DNA” value was ≤ 0.2.

In the case of SACL, the “one-hybrid fitness for binding parS DNA” value is ≤ 0.2.

Consider FFKL, for which the “one-hybrid fitness for binding parS DNA” value was ≤ 0.2. For the variant PPIS, the “one-hybrid fitness for binding parS DNA” value is ≤ 0.2.

HSCG: the “one-hybrid fitness for binding parS DNA” value is ≤ 0.2.

With ITLN, the “one-hybrid fitness for binding parS DNA” value is ≤ 0.2. As for LLFT, the “one-hybrid fitness for binding parS DNA” value was ≤ 0.2. As to FSVM, the “one-hybrid fitness for binding parS DNA” value was ≤ 0.2. For ETYC, the “one-hybrid fitness for binding parS DNA” value was ≤ 0.2. On to LNNY, for which the “one-hybrid fitness for binding parS DNA” value is ≤ 0.2. On to ILHG, for which the “one-hybrid fitness for binding parS DNA” value was ≤ 0.2. Then TPDG, with ≤ 0.2; and NNST, with ≤ 0.2. For the variant VLTD, the “one-hybrid fitness for binding parS DNA” value was ≤ 0.2.

Turning to SANA, the “one-hybrid fitness for binding parS DNA” value was ≤ 0.2. As to VHTQ, the “one-hybrid fitness for binding parS DNA” value was ≤ 0.2. Turning to YRWL, the “one-hybrid fitness for binding parS DNA” value is ≤ 0.2.

Regarding QGQF, the “one-hybrid fitness for binding parS DNA” value is ≤ 0.2. Then YPNT, with ≤ 0.2.
